The values below come from paper PMC12136788.

The other results are listed elsewhere or left out.

B1: chr4:81936313:81936314:-_ENSMUSG00000008575_ENSMUST00000064770|mus_mus|FALSE|FALSE (ssRNA)
RNA: GGGAGUUCUACAGUCCGACGAUCCCCACAAAAAGUACACAAAGAACAUUAUCCUCCAACCGGGCACAAUAAAACCUUCACUAACAUUCCGGCCCAGUCUGGGGCCUAUCCCAGAGGCCCGAACUCCAGAAAUUAAGUAAGUAACAACAGAGGAUUGAGCAUCA
B2: chr1:46159212:46159213:+_ENSG00000159596_ENST00000372025|hu_mus|hu_hu_hu_mus_True|68_88 (ssRNA)
RNA: GGGAGUUCUACAGUCCGACGAUCUCUGAUCCCUCCCAAGAAAGCUAGGAAACUGGCUCCAUAAGCCAUCUGAGUAAAAGCUAGGACGGGGAUAUAAGACUUUGUUAUUACCAUGAGAAGUGGGGGAGCAGUAAAGGGGAUUAACAACAGAGGAUUGAGCAUCA
B3: chr4:151706827:151706828:+_ENSMUSG00000028936_ENSMUST00000139685|mus_hu|FALSE|FALSE (ssRNA)
RNA: GGGAGUUCUACAGUCCGACGAUCUUUGUAUCCCUGAAUCAUUGAGAAAAGCAACAGAUACAACUGACAGUCACACUUUUUAAAAUCAAACAGUCACUACCUUCAGCCCACACCUCCACACCCGCAUCUGCCUCCCCAAUGGCUCAACAGAGGAUUGAGCAUCA
B4: chr11:4127340:4127341:+_ENSG00000167325_ENST00000300738|hu_mus|hu_hu_hu_mus_False|38_38 (ssRNA)
RNA: GGGAGUUCUACAGUCCGACGAUCGGCAUAGUCAGGGUGCUUCGUGGUCAAGGUCGCGGCUGUCUCAGCAGCCAGGGUGUCCAGUUCCACUGUGGUGACCCCACUGUAUAGGCCUUGGAUUACUUUCAUGGUGAUCUGAGCAGGCAACAGAGGAUUGAGCAUCA
B5: chrX:149583016:149583017:+_ENSMUSG00000041658_ENSMUST00000039720|mus_mus|FALSE|FALSE (ssRNA)
RNA: GGGAGUUCUACAGUCCGACGAUCAUUUCCAACAGAGUCUACGAGAGAGUAGGUGCUCAAACUGCUAUUAAUUUGAAGACUAUGUAUACGGUCUAGUAUUGUUGCACCAAGACGACGUGUGUCUCUGGCAAUAUAAUUUGCAAACAACAGAGGAUUGAGCAUCA
B6: 88753997_88754117_279_5pUTR_ENSMUSG00000068921_ENSMUST00000090938|mouse|control|control (ssRNA)
RNA: GGGAGUUCUACAGUCCGACGAUCCGUCGCGGUGGCCCGUCCCAGGAGGUCCGCGCCUAGGUACCUUCGCUCGCUCUUCAAAACAUUCCGGUCACCGUGGCCAGCCUCGUCUGCGCGGGCGUGCCCGCUUCUCCCCGGCCCCAGCAACAGAGGAUUGAGCAUCA
B7: 8245625_8248290_788_3pUTR_ENSG00000089818_ENST00000339754|human|control|control (ssRNA)
RNA: GGGAGUUCUACAGUCCGACGAUCGUGCUGAAGUCUCCCCACAAGUCAUUGCUUACAGAAACUGGAGUUGGUGCUGGUGUCGUGACAGGAGCAGGAGAAUCCAAAUCUAAAAGGAUAUCUGCAUCACUGCCUCCAUGGUUAGAUCAACAGAGGAUUGAGCAUCA
B8: chr9:53391639:53391640:-_ENSMUSG00000032047_ENSMUST00000034547|mus_hu|FALSE|FALSE (ssRNA)
RNA: GGGAGUUCUACAGUCCGACGAUCCACUUUUUGGGGAUCAAUCUCCAACAUUUUAAUGUUUGCUAGUACAACCAGACUAAAGGCUUCAUUUACUUCCCACAUUGCAAUAUCUUCUUUUUUCAAUCCCACAUCUUUAAGAACCAUCAACAGAGGAUUGAGCAUCA
B9: chr7:75932113:75932114:+_ENSG00000106211_ENST00000248553|hu_hu|hu_hu_hu_mus_False|28_38 (ssRNA)
RNA: GGGAGUUCUACAGUCCGACGAUCCUGCGACCACUCAUCGGGCAACCGGGGCACCCCGAAAGCUUGAUCGAAGAGGCGGCUGUGUGCAGGGUACCAGCGGAAGGGGUCCCAGCUGGGCGGGCUCCGCAGCAGCGAGAAGGGCACCAACAGAGGAUUGAGCAUCA
B10: chr1:66480114:66480115:+_ENSMUSG00000015222_ENSMUST00000024639|mus_hu|mus_mus_mus_hu_True|1_1 (ssRNA)
RNA: GGGAGUUCUACAGUCCGACGAUCUGGCCUGUGGCGGAUGUUCUUCAGAGAGCCACAUUUGGAUGUCACAUGGCUUAGGUCUAUUUUCUUGGUAACAAUUUGUACCUGCCCCCCUUUAGGCUGGUAUUUGAUGUUGUCAGUUGACAACAGAGGAUUGAGCAUCA
B11: chr11:63961690:63961691:+_ENSG00000168439_ENST00000305218|hu_hu|motif|central (ssRNA)
RNA: GGGAGUUCUACAGUCCGACGAUCCUCGUGUUUUAAGCCCUCCUCAUAGGUUCGCUUGGCUUCUUCAAAGCGGUUUAAGAACUCGGGAGCUGCUGCUUUUCGUGAAUAGCCCUUGCCCCAGUCAGGCUUUAGGUCGACAGUCUUCAACAGAGGAUUGAGCAUCA
B12: chr3:107877451:107877452:-_ENSMUSG00000027889_ENSMUST00000078912|mus_mus|FALSE|FALSE (ssRNA)
RNA: GGGAGUUCUACAGUCCGACGAUCGCAGCCAGUGCCACAGCAGAGAGAUAACGAGCCCCUCCUGUCCCACAGCCACAUAAACAAGAGGGAAACUCAACUUGAACUCUAACCAAAGCCUGGGUUCCCGGUGCUCAAGGGGCCAGCCAACAGAGGAUUGAGCAUCA
B13: chr1:58468927:58468928:-_ENSMUSG00000026034_ENSMUST00000148330|mus_mus|mus_mus_mus_hu_False|58_88 (ssRNA)
RNA: GGGAGUUCUACAGUCCGACGAUCAAUUACUGAAAAAGAUGUUCAUUUAUUUGGUUUUGUACUUAAUGAACCAAAUUAUCUAAAAAAAAUAAACAUGGCAAUAUAAAAAUGUUAAGAAUUUACAAAGCUGUACAAAAUAACUUACAACAGAGGAUUGAGCAUCA
B14: chr13:29045409:29045410:-_ENSMUSG00000076431_ENSMUST00000067230|mus_hu|FALSE|FALSE (ssRNA)
RNA: GGGAGUUCUACAGUCCGACGAUCAUUUUGUUGCAAGGUAGGAAGCCAAAAAGCCUGCAUGCAACAGACUGGCAUGAAUAAAUGUAUGUUUCCCCCUCCCUUCUGCAAGAAGGGAGCUGGUAAUGGCAGGAGUUCCUCCAGUGCCAACAGAGGAUUGAGCAUCA

The test concerns the target T1, UNK ZnF1-3 (human, UniProt Q9C0B0 31-174).
T1 sequence: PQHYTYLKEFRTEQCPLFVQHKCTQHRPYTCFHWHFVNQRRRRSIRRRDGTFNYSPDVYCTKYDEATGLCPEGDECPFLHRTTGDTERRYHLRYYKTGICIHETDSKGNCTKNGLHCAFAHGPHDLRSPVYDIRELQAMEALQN
The test is described as follows: nsRBNS (natural sequence RNA bind-n-seq); RBNS binding buffer (assumed for nsRBNS): 25 mM Tris pH 7.5, 150 mM KCl, 3 mM MgCl2, 0.01% Triton X-100, 500 ug/ml BSA, 20 U/ml SUPERase-In, 4 C; UNK is unkempt and MSI1 is Musashi-1; names of the RNAs are library labels; protein concentration not given here; high values mean tight binding.
B1 registered a binding signal of 1.6 enrichment R.
For B2 the value was 1.48 enrichment R.
Take B3: the binding signal worked out at 1.91 enrichment R.
In turn, B4 registered a binding signal of 0.973 enrichment R.
For B5 the value was 0.764 enrichment R.
In the case of B6 it was 0.597 enrichment R.
For B7 the value was 1.09 enrichment R.
On to B8, for which the binding signal was 0.735 enrichment R.
Consider B9, for which the binding signal was 1.26 enrichment R.
B10 yielded a binding signal of 0.501 enrichment R.
In the case of B11 it was 0.578 enrichment R.
In the case of B12 it was 1.35 enrichment R; in that of B13, 2.55 enrichment R; in that of B14, 0.814 enrichment R.
